According to the RNAGym collection of RNA variant scans (doi:10.7554/elife.90254):
The source gives no read counts; variants with many changes may rest on few reads.

B1: LINE1-full (parent)
chain: UACGUAGGUGGUUUUCCCCUGAUAGUGCUAAGGGGGCCUGGAAGUUUGGACUGGGCAGAGCUCAACACAGCGUGGCAAAGUGGCUGUGGCUAGACUGCCUCUCUGGAUUCCUCGUCACUCAGCAGGGCAUCUCUGAGAGAAAUGCC

Variants of: B1
Test: self-cleavage, relative activity (ratio to wild type); higher = more cleavage; in vitro, sequencing; the parent is a self-cleaving ribozyme

Variant | self-cleavage
A2G A57U A94G | 0.25
A2G A57U U115C | 0.67
A2G A57U U132C | 0
A2G A59G G74C A124U | 0
A2G A59G G105A | 0.16
A2G A59U U143C | 0.97
A2G A64G U102C | 0
A2G A64U A67G U81C U100A A129G | 0
A2G A67C U119C C128G U134C | 0
A2G A67G A142U | 0.84
A2G A67U A94G A129G | 0
A2G A69G U81C | 0.42
A2G A69U G126A | 0.1
A2G A77U U85C A92G | 0.27
A2G A77U U87C C116U | 0.1
A2G A78G A94U A138U | 0.47
A2G A78G A138G | 1.5
A2G A78G U87A U96C A124G | 0
A2G A92G U115A | 0.77
A2G A94G U132C | 0.57
A2G A94U A107G | 0.66

Variant | self-cleavage
A2G A124U A141G | 0.47
A2G A138G U143A | 1.12
A2G C3G C61U A78G U96A | 0.26
A2G C16U A59U A141G | 0.95
A2G C17A A78G G97A A121G | 0.52
A2G C19A U143A | 0.52
A2G C37G A65U U108C A117U U134A | 0.47
A2G C63A A67G | 0.35
A2G C76G U130A | 1.57
A2G C76U U96C U115A A141G | 0.18
A2G G4A U47G C71U | 0.7
A2G G7A G8U A22G A67G | 0
A2G G7A U20C A79G | 2.42
A2G G10A A31C G97A G144A | 0.53
A2G G32A A121U U134C A142G | 1.25
A2G G34A U47A A50G G80A | 1.36
A2G G34A U112C | 1.23
A2G G34U U45C U62A C76U U109C A124U U134A A141C | 0.1
A2G G36A G80C | 0.89
A2G G41C C63U | 0.32
A2G G55A G89A A92G A142G | 0.07

Variant | self-cleavage
A2G G58U A59G A136U | 0.37
A2G G58U A69C A79U U115A A141G | 0.23
A2G G72A U108C | 1.21
A2G G89A U112C A136U | 0.09
A2G G106U U115C | 0.95
A2G G122U A142G | 1.08
A2G U5A A67G U104C A140G | 1.84
A2G U5A U73A U81A | 0.83
A2G U5C U109C | 0.46
A2G U9A U52C | 0.28
A2G U9C G34A U96A U102C C111U A129U | 0.43
A2G U9C U15C U52A A57U | 0.2
A2G U9C U29G | 0
A2G U9C U81A U143C | 1.72
A2G U9G A59U A117G | 1.11
A2G U12A U14A U104C | 0
A2G U12A U81C A136U | 0
A2G U12C G36U U87C | 0.56
A2G U12C G41A U62C | 0.17
A2G U12C U13C A69U U73C U96A A117G | 1.84
A2G U12C U15A A30U A50G G86A U100C | 0

Variant | self-cleavage
A2G U12C U85A | 0.07
A2G U12G U13C A22U A117G | 2.42
A2G U12G U39C U96A A121U A141G | 0
A2G U12G U87A U132C | 0.39
A2G U13C A42G A78G | 0.57
A2G U13C U46A G105A U119C A141G | 1.32
A2G U13C U52A A59C U143C | 0.53
A2G U13C U81A U100C G106A | 1.95
A2G U14A A64G A121U | 0.18
A2G U14A U20A G105A | 0.68
A2G U14A U46C | 2.91
A2G U14C G54A A59G | 0.43
A2G U14C G58A U73C U132A | 0.34
A2G U14C G80A U100A | 0.98
A2G U14C U15C C71U A129G A136G | 1.25
A2G U14C U81A A94G C103A | 0.56
A2G U15A A57G | 1.08
A2G U15A A136U | 0.4
A2G U15A U87C | 0.05
A2G U15C A69U U87C U104C U115A | 0
A2G U15C G33A C116U | 2.3
